# The RNAGym collection of RNA variant scans (doi:10.1073/pnas.2313332121)
# Variants at the floor of the assay are shown more often than the library holds them.
# B1: TPR 5TU (parent)
# chain: GGAUCUUCUCGAUCUAACAAAAAAGACAAAUCUGCCACAAAGCUUGAGAGCAUCUUCGGAUGCAGAGGCGGCAGCCUUCGGUGGCGCGAUAGCGCCAACGUUCUCAACUAUGACACGCAAAACGCGUGCUCCGUUGAAUGGAGUUUAUCAUG
# Variants of: B1
# Experiment: polymerase ribozyme fitness, log enrichment relative to wild type (log ratio); higher = more active; in vitro selection for triplet polymerase activity
# How it was run: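 Fitness is a logarithmic measure of how a genotype enriched relative to the wild type, with replicate averages weighted by inverse variance. The logarithm uses base 2, and enrichment came from Illumina sequencing of input and output libraries. Those libraries were PCR-built, transcribed mutants of each subunit of a heterodimeric triplet polymerase ribozyme, passed through one triplicate in vitro selection round that included frozen incubation at −7 °C, gel excision of extended constructs and streptavidin-bead capture. Genotypes were kept only if they had ≥10 input reads and ≥1 read per output.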
row,Variant,polymerase ribozyme fitness (log ratio)
1,A39G C51U G83A C95U A142C,≤ -4.2
2,A39U G46A C93G A119U U139G,≤ -4.2
3,A40U U82G G92A,-2.82
4,A40U A49G C63U C87U A107U U139G,≤ -4.2
5,C38U U45A G68C U102G A138G,≤ -4.2
6,A39U A64G C87A A98U U135G,≤ -4.2
7,A40C A49C C57G G74C C87G A89G U104G,≤ -4.2
8,A39U C54U U61A C93U A106U,≤ -4.2
9,A40U G48A C75A A107U A138U G141A,≤ -4.2
10,A40U A52C C85G U111C G140U A150C,≤ -4.2
11,C38U U56A C108A A113U,≤ -4.2
12,A40C C93G G94U C99G C114U C131A,≤ -4.2
13,A39C C85G C87A U90C A137U,≤ -4.2
14,A40C U53G A66G A119G,≤ -4.2
15,A41C C93U A97C U102G,≤ -4.2
16,A39C U44G A52G U55G G65U G74C C85U,≤ -4.2
17,A40C C96U A122G G124C,-0.809
18,A40C C69A C76A,≤ -4.2
19,A40G U56A G83C C125U G141A,≤ -4.2
20,A39C U55G A91G A142G,≤ -4.2
21,A41C A49C G62A G74U A121G U146C,≤ -4.2
22,A40C A41U C99U C125A,-2.04
23,A40C A41C G58C A91U G124A C125A,≤ -4.2
24,A40G U102C U139G G140U,≤ -4.2

row,Variant,polymerase ribozyme fitness (log ratio)
1,A40C A73C C95A,≤ -4.2
2,A39C U135G G143C A150G,≤ -4.2
3,A40C G80C G86C G128A,≤ -4.2
4,C38U G81C U111G A138G,≤ -4.2
5,A39G A40G G68A G100A C114U C118G A138U,≤ -4.2
6,A39C A52C U53A U55A C95U A98G,≤ -4.2
7,A40U A89G A91U C93G A107G C123G C125A,≤ -4.2
8,A39G C54A U90C A142U,≤ -4.2
9,A39C A91U U148A,≤ -4.2
10,A40U G67U C76G G128C G141U A142C,≤ -4.2
11,A39U A40C A52C G140C,≤ -4.2
12,C38U C95A C108U C132U,-3.39
13,A41C C57U A89U G92C C116G C125A,≤ -4.2
14,A39U A41U C57U A60C C87A,≤ -4.2
15,A40U A106G,0.3
16,A39G C103G G126U,≤ -4.2
17,A41C G84U C87G,≤ -4.2
18,A40U A122C,0.0565
19,A40C U148A,-3.51
20,A40C C76U C95A C131G G141U,-1.68
21,A40G G70C C85A,≤ -4.2
22,A40G G42C G94A,≤ -4.2
23,A40U C96U C105A A147C,≤ -4.2
24,A39C C79G G83U A97C G140U U146A,≤ -4.2

row,Variant,polymerase ribozyme fitness (log ratio)
1,A39C G84A U144A,-2.69
2,A40C G81A,0.951
3,A40C C76G U151A,≤ -4.2
4,C38U C96G G152U,-3.85
5,A40U G88A C93U U134G U139G,≤ -4.2
6,A39G U134G,-3.86
7,A41C A47C G80C G84U G128A G136C,≤ -4.2
8,A41C A107U C108G,≤ -4.2
9,A41C C85G A113C,-4.19
10,A40U G68C C96U C105A,≤ -4.2
11,A39C C76U G83U U104C,≤ -4.2
12,A39C C63A A64U G84A C93G,≤ -4.2
13,A41C C79G G94A C99A,≤ -4.2
14,A39C A47G G59U G92U C114A G128A U139G A150C,≤ -4.2
15,A40C U90G A107U A150G,≤ -4.2
16,A40C G86A G100U,≤ -4.2
17,A39U C85U U90G C118U C125U,≤ -4.2
18,A40C U53A C114A U144G,≤ -4.2
19,A39U A40G G62C G92U,≤ -4.2
20,A40U A49C G50A G65U C76G U78C A106C U111G A115G U127A A150C,≤ -4.2
21,A39U G71C C95G G143A U144C,≤ -4.2
22,A40C C85G C87G G94U A97G,≤ -4.2
23,C38U G58A G59C C69A C79A G80A U82C U90C C96A U109G G112U,≤ -4.2
24,A40C G59A A73U C87A U90A U101G C129G G143C,≤ -4.2

row,Variant,polymerase ribozyme fitness (log ratio)
1,A40U A49C C72A C95U C99G A138C,≤ -4.2
2,A40U U77G G80A C129A U148A,≤ -4.2
3,A39G A73G C75U C76G C93A,≤ -4.2
4,A39C C85A C118A,-3.96
5,A39U G48C C87G U90C A120G,≤ -4.2
6,C38U C87U G94U,-1.73
7,A40C C93A C99U G133C,-3.98
8,A40U A60G G112C,≤ -4.2
9,A40C C43U C75U C85G C93G C132U U146C,≤ -4.2
10,A40C G70C C103G,≤ -4.2
11,A41C A49C C87U A113U U144G U151C,≤ -4.2
12,A40U C76A C79A C114U G143U U146C U148A,≤ -4.2
13,A39C U61G C75U G88A A89C A98U,≤ -4.2
14,A39G U55G G84A U135G,≤ -4.2
15,C38U G81A C99G A120U G124C,-3.02
16,A41C C43G C51A C99A A137C A147C,≤ -4.2
17,A40G G42C U44A G92C,≤ -4.2
18,A41C A66G C79A C118U G126C,≤ -4.2
19,A41C G65A A66U U144A,≤ -4.2
20,A39C C43A U45G A91G C93U,≤ -4.2
21,A40C A52G U82A G92U A106U,-3.38
22,A40C A64U C114A,≤ -4.2
23,C38U C108G A110G U127A G136U,≤ -4.2
24,A40G A52C A66U C75G C79G A120C,≤ -4.2

row,Variant,polymerase ribozyme fitness (log ratio)
1,A41C A97G A121G,-0.295
2,A40G A41C A52G G71U A107G U111G U139C U146G C149A U151G,≤ -4.2
3,A40G C149A,-3.98
4,C38U U44A C85A G117U C149G,≤ -4.2
5,A40U G94A A107U,≤ -4.2
6,A40C U82G A89G,0.203
7,A39U U55G U56A C96U C103U A110C,≤ -4.2
8,A40G U82G,-1.38
9,C38U C87U C95U U144A,-1.21
10,A40C C75A G92C A97U A121U,≤ -4.2
11,A40U U53C,0.103
12,A41C G81C A107U C118U G126A G140C,≤ -4.2
13,A39G A97U,-2.96
14,A40C G88U C96U A122U U127G U148A A150U,≤ -4.2
15,A39G A40C A73U C75A U82A C93A C103A A107U C131U,≤ -4.2
16,A41C C103A,-1.44
17,A40C U56A G128C,-3.92
18,A40G C87U C103G,≤ -4.2
19,C38U U56A G88A C108U G124A U145G,≤ -4.2
20,C38U G68A U102G U145C,≤ -4.2
21,A41C C85A C105G G126U,-3.3
22,A40U A52G G58C C75U G141U,-2.07
23,A40U A52G G94U U109C,≤ -4.2
24,A39C A52G A64G G86U A137C,≤ -4.2

row,Variant,polymerase ribozyme fitness (log ratio)
1,A41C A106C,-0.881
2,A39G A41G A49C C85G A107G A147U,≤ -4.2
3,A39U C75G C93A U102G,≤ -4.2
4,C38U U82C C85U U90G C99U C105U C108G A120G,≤ -4.2
5,A40U C57A G86A A110U C125A G141U,≤ -4.2
6,A40G C51U C87G G117U G133U,≤ -4.2
7,A41C G67A U148C,≤ -4.2
8,C38U G48A C87A,≤ -4.2
9,A41C C69A,-2.53
10,A39G G83A U101A,≤ -4.2
11,A41C C96A,-0.56
12,A40C G50A C72U U78C C87U,≤ -4.2
13,A40U G46A G50C C87G G92U G126A U148A,≤ -4.2
14,C38U G92A U146A,-2.92
15,C38U U148C,-1.36
16,A40C G80U C85G A89G C118A,≤ -4.2
17,A40C G62U C72A G80A C118G,≤ -4.2
18,A40U U61A C79A U104G,≤ -4.2
19,A40C A89C C93G U102G C103A U145G,≤ -4.2
20,A39C A137U,≤ -4.2
21,A40G G92A U101G G117C,≤ -4.2
22,A40G A91G A115G C116G A142C,≤ -4.2
23,A40U A47C A66C C76U C93A A98G C99G U104C A150U,≤ -4.2
24,C38U G84U C87G U144C C149G,≤ -4.2

row,Variant,polymerase ribozyme fitness (log ratio)
1,A40G G59C C79U C85U U151G,≤ -4.2
2,A40G A60C G88A C103A,≤ -4.2
3,A39U U101C U144G,-2.52
4,C38U C87U,-1.19
5,C38U G50U U56A G74U C75G C125U U139A,≤ -4.2
6,A39C A47G C76U G84A C103A A142C,≤ -4.2
7,A40G A60C G84A C96U U101G C105G U144C,≤ -4.2
8,A40U A64C C72U C85A G94C,≤ -4.2
9,A41C G70A G94C C105G A110G,≤ -4.2
10,A39G A137G,-3.57
11,A40G A137C G141U U144A,≤ -4.2
12,C38U G46A C95A,-0.705
13,A41C G50A G74A U82G C95U A107C,≤ -4.2
14,A40G C76U C95U C116G,-3.42
15,A40G C85G U111G U151C,≤ -4.2
16,A39G A52C C87A G100U,≤ -4.2
17,C38U U55A A73G C95U A115U G124C,≤ -4.2
18,A40G U77G G80A C93A A107G A120C A121U,≤ -4.2
19,A40U C87U,-0.375
20,A40U U61G G65A C75U C79U A98U C123G C125A U144C,≤ -4.2
21,A40C C95U,-0.646
22,A40G A49U A60C C76A C96U U134G,≤ -4.2
23,A41C G58U G59A G65A A66U G124U,≤ -4.2
